The other results are listed elsewhere or left out. Sequences were assembled here from the parent chain. Values near 0.05 are background.
B1: TEV protease; numbered along this chain (parent)
chain: MGESLFKGPRDYNPISSSICHLTNESDGHTTSLYGIGFGPFIITNKHLFRRNNGTLVVQSLHGVFKVKDTTTLQQHLVDGRDMIIIRMPKDFPPFPQKLKFREPQREERICLVTTNFQTKSMSSMVSDTSCTFPSGDGIFWKHWIQTKDGQCGSPLVSTRDGFIVGIHSASNFTNTNNYFTSVPKNFMELLTNQEAQQWVSGWRLNADSVLWGGHKVFMVKPEEPFQPVKEATQL

Variants of: B1
Assay: raw area under fraction-flipped curve 0-4 h after induction (AUC4h, not background-subtracted), DNA-recorder readout of cleavage of the substrate (dimensionless); higher = more cleavage of the substrate by the protease variant
Conditions: temperature: 34 °C; time window: 0-4 h after rhamnose induction
Procedure: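 In vivo DNA recorder in E. coli TOP10(DE3) ΔrhaA at 34 °C. Each TEVp single-site mutant (parent TEVp 0) is paired with a single-site variant of the 7-mer TEVs (canonical ENLYFQ|S). The substrate sits between flexible linkers in a Bxb1-sfGFP-TEVs-SsrA fusion, so cleavage stabilises Bxb1 and speeds flipping of a recombination array, read by NGS. The value is the raw area under the fraction-flipped curve over 0-4 h after rhamnose induction (AUC4h), with ≥20 reads per time point. It is not background-subtracted; inactive controls average about 0.047.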
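Note: Bxb1 expression induced with 0.2% (w/v) L-rhamnose at OD600 near 0.5, cultures sampled hourly, flipped fraction per protease–substrate barcode pair counted by paired-end Illumina sequencing.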

Variant | area with substrate ENLYFAS | area with substrate ENLYFCS | area with substrate ENLYFFS | area with substrate ENLYFHS | area with substrate ENLYFIS | area with substrate ENLYFKS | area with substrate ENLYFLS | area with substrate ENLYFMS | area with substrate ENLYFNS | area with substrate ENLYFPS | area with substrate ENLYFRS | area with substrate ENLYFSS | area with substrate ENLYFTS | area with substrate ENLYFDS | area with substrate ENLYFES | area with substrate ENLYFVS | area with substrate ENLYFWS | area with substrate ENLYFYS | area with substrate ENLYFGS
MGESLFKGPRDYNPISSSICHLTNESDGHTTSLYGIGFGPFIITNKHLFRRNNGTLVVQSLHGVFKVKDTTTLQQHLVDGRDMIIIRMPKDFPPFPQKLKFREPQREERICLVTTNFQTKSMSSMVSDTSCTFPSGDGIFWKHWIQTKDGQCVSPLVSTRDGFIVGIHSASNFTNTNNYFTSVPKNFMELLTNQEAQQWVSGWRLNADSVLWGGHKVFMVKPEEPFQPVKEATQL [G153V] | 0.0393 | 0.0512 | 0.0443 | 0.0473 | 0.047 | 0.0426 | 0.0477 | 0.0366 | 0.0453 | 0.0519 | 0.048 | 0.051 | 0.0531 |  |  |  |  |  | 
MGESLFKGPRDYNPISSSICHLTNESDGHTTSLYGIGFGPFIITNKHLFRRNNGTLVVQSLHGVFKVKDTTTLQQHLVDGRDMIIIRMPKDFPPFPQKLKFREPQREERICLVTTNFQTKSMSSMVSDTSCTFPSGDGIFWKHWTQTKDGQCGSPLVSTRDGFIVGIHSASNFTNTNNYFTSVPKNFMELLTNQEAQQWVSGWRLNADSVLWGGHKVFMVKPEEPFQPVKEATQL [I145T] | 0.0583 | 0.0676 | 0.07 | 0.065 | 0.05 | 0.0547 | 0.0566 | 0.0649 | 0.0622 | 0.0605 | 0.0463 | 0.0738 | 0.0582 | 0.0604 | 0.0638 | 0.147 | 0.0847 | 0.0511 | 
MGESLFKGPRDYNPISSSICHLTNESDGHTTSLYGIGFGPFIITNKHLFRRNNGTLVVQSLHGVFKVKDTTTLQQHLVDGRDMIIIRMPKDFPPFPQKLKFREPQREERICLVTTNFQTKSMSSMVSDTSCTFPSGDGIFWKHWRQTKDGQCGSPLVSTRDGFIVGIHSASNFTNTNNYFTSVPKNFMELLTNQEAQQWVSGWRLNADSVLWGGHKVFMVKPEEPFQPVKEATQL [I145R] | 0.0492 | 0.0737 | 0.0635 |  | 0.0613 |  | 0.0445 | 0.0649 | 0.0551 | 0.0031 | 0.0717 |  | 0.0546 | 0.0557 | 0.0681 | 0.0586 | 0.0443 | 0.0589 | 
MGESLFKGPRDYNPISSSICHLTNESDGHTTSLYGIGFGPFIITNKHLFRRNNGTLVVQSLHGVFKVKDTTTLQQHLVDGRDMIIIRMPKDFPPFPQKLKFREPQREERICLVTTNFQTKSMSSMVSDTSCTFPSGDGIFWKHWIQTKDGQRGSPLVSTRDGFIVGIHSASNFTNTNNYFTSVPKNFMELLTNQEAQQWVSGWRLNADSVLWGGHKVFMVKPEEPFQPVKEATQL [C152R] | 0.0589 | 0.0513 | 0.0695 | 0.0567 | 0.0692 | 0.0614 |  | 0.0544 | 0.0633 | 0.0576 | 0.058 |  | 0.0637 |  |  | 0.0452 |  | 0.0567 | 
MGESLFKGPRDYNPISSSICHLTNESDGHTTSLYGIGFGPFIITNKHLFRRNNGTLVVQSLHGVFKVKDTTTLQQHLVDGRDMIIIRMPKDFPPFPQKLKFREPQREERICLVTTNFQTKSMSSMVSDTSCTFPSGDGIFWKHWIQTKDGQTGSPLVSTRDGFIVGIHSASNFTNTNNYFTSVPKNFMELLTNQEAQQWVSGWRLNADSVLWGGHKVFMVKPEEPFQPVKEATQL [C152T] | 0.0697 | 0.0581 | 0.0677 | 0.0652 | 0.0704 |  | 0.0555 | 0.0432 |  | 0.058 |  | 0.107 | 0.058 |  | 0.047 |  |  |  | 0.081
MGESLFKGPRDYNPISSSICHLTNESDGHTTSLYGIGFGPFIITNKHLFRRNNGTLVVQSLHGVFKVKDTTTLQQHLVDGRDMIIIRMPKDFPPFPQKLKFREPQREERICLVTTNFQTKSMSSMVSDTSCTFPSGDRIFWKHWIQTKDGQCGSPLVSTRDGFIVGIHSASNFTNTNNYFTSVPKNFMELLTNQEAQQWVSGWRLNADSVLWGGHKVFMVKPEEPFQPVKEATQL [G138R] | 0.0713 |  | 0.0393 | 0.0461 | 0.0523 |  | 0.0619 | 0.0534 | 0.0609 |  | 0.0518 |  |  | 0.0582 | 0.068 |  |  | 0.0602 | 
MGESLFKGPRDYNPISSSICHLTNESDGHTTSLYGIGFGPFIITNKHLFRRNNGTLVVQSLHGVFKVKDTTTLQQHLVDGRDMIIIRMPKDFPPFPQKLKFREPQREERICLVTTNFQTKSMSSMVSDTSCTFPSGDGIFWYHWIQTKDGQCGSPLVSTRDGFIVGIHSASNFTNTNNYFTSVPKNFMELLTNQEAQQWVSGWRLNADSVLWGGHKVFMVKPEEPFQPVKEATQL [K142Y] | 0.0447 |  | 0.0631 |  | 0.0455 |  |  | 0.0566 | 0.0638 | 0.0569 | 0.0452 |  |  |  | 0.0738 | 0.0605 |  |  | 
MGESLFKGPRDYNPISSSICHLTNESDGHTTSLYGIGFGPFIITNKHLFRRNNGTLVVQSLHGVFKVKDTTTLQQHLVDGRDMIIIRMPKDFPPFPQKLKFREPQREERICLVTTNFQTKSMSSMVSDTSCTFPSVDGIFWKHWIQTKDGQCGSPLVSTRDGFIVGIHSASNFTNTNNYFTSVPKNFMELLTNQEAQQWVSGWRLNADSVLWGGHKVFMVKPEEPFQPVKEATQL [G136V] | 0.0605 | 0.0808 | 0.0717 |  | 0.054 | 0.0598 |  | 0.0825 | 0.0732 | 0.0674 | 0.0525 |  | 0.0481 | 0.0533 | 0.0704 |  |  |  | 
MGESLFKGPRDYNPISSSICHLTNESDGHTTSLYGIGFGPFIITNKHLFRRNNGTLVVQSLHGVFKVKDTTTLQQHLVDGRDMIIIRMPKDFPPFPQKLKFREPQREERICLVTTNFQTKSMSSMVSDTSCTFPSFDGIFWKHWIQTKDGQCGSPLVSTRDGFIVGIHSASNFTNTNNYFTSVPKNFMELLTNQEAQQWVSGWRLNADSVLWGGHKVFMVKPEEPFQPVKEATQL [G136F] | 0.0665 |  | 0.0783 | 0.0663 | 0.0583 | 0.0594 | 0.0627 | 0.0573 | 0.0569 | 0.0697 | 0.0674 | 0.059 | 0.0574 | 0.0576 | 0.0981 | 0.0464 | 0.0632 |  | 0.0596
